# Test results published in PubChem BioAssay AID1460 (National Center for Advancing Translational Sciences (NCATS), 2008).
# Several values for one entry are separate records, joined by “and”; a condition that tells them apart may be missing. Equal entries are not always repeated. In all, about 270,000 compounds went through this assay and about 5,800 (2.1%) were called active. This list was built around the results that the source calls inconclusive (neither active nor inactive); the mix of calls is not that of the screen. The call rests on the fitted dose curve; in most records, active means well fitted inhibition curve with a large enough effect; inconclusive means small, poorly fitted or top-dose-only effect; inactive means flat fitted curve, though single readings scatter. Where the call is inconclusive, the potency comes from a doubtful curve fit.
# Target: Microtubule-associated protein tau (Homo sapiens) (UniProt P10636)
# Test: qHTS for Inhibitors of Tau Fibril Formation, Thioflavin T Binding; further: nearly all actives have a fitted effect of over 55% in size
# Details: recombinant tau K18 P301L, heparin-induced fibrillization, ThT fluorescence; series mostly up to 57.4 µM
# In short: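 Using a mix of unlabeled (15 uM) and Alexa 594-labeled (0.24 uM) tau K18 P301L, heparin-triggered fibrillization over 6 hr at 37 C was scored by ThT fluorescence.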
# Potency means the concentration at half of the fitted maximal effect; tags describe the fitted curve by direction and shape.
# UniProt P10636, sequence (P10636 whole entry, looked up): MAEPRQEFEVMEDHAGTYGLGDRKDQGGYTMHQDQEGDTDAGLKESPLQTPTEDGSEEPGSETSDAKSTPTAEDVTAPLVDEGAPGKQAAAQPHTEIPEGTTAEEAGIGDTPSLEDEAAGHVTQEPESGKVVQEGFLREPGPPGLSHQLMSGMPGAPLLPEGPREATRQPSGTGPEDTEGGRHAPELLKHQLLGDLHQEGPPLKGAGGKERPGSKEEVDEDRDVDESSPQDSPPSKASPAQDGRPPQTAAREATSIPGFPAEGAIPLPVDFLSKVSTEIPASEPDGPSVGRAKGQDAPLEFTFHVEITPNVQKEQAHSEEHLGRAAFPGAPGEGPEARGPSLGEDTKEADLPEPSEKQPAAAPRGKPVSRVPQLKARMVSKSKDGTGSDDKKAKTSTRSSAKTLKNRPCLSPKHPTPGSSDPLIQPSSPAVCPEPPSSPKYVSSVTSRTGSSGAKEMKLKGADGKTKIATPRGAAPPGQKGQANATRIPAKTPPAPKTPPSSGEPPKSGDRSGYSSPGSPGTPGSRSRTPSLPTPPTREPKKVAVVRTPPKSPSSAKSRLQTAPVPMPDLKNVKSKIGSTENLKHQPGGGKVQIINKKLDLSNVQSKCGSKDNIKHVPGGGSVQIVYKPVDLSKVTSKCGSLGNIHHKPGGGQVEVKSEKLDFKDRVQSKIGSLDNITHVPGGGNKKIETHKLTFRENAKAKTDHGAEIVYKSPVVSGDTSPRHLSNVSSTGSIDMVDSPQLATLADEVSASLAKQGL
row,SMILES,Potency
1,COc1ccc(C)cc1NC(=O)CN1CCN(S(=O)(=O)c2ccc(Br)cc2)CC1,inactive
2,Cc1nccn1CC(=O)N/N=C/c1ccc(O)c(O)c1,"inconclusive: 22.4 µM [inhibitor, single point]"
3,COc1ccc(N2CCN(Cc3cc4c(cc3O)CCC4)CC2)cc1,"inconclusive: 35.5 µM [inhibitor, partial curve]"
4,CN(C)N1C(N)=C(C#N)C(c2cccs2)C2=C1CC(C)(C)CC2=O (configuration not stated),inactive
5,CC(C)OCCCNC(=O)c1nn(C)c2c1CSc1ccccc1-2,"inconclusive: 12.6 µM [inhibitor, partial curve, poor fit]"
6,COc1ccc(S(=O)(=O)C(C#N)c2nc3ccccc3nc2N2CCCCC2)cc1 (configuration not stated),"inconclusive: 12.6 µM [inhibitor, partial curve]"
7,COc1ccc(-c2noc(CSc3nnc(-c4ccccc4)n3C)n2)cc1,"inconclusive: 11.2 µM [inhibitor, partial curve] and inconclusive: 6.31 µM [inhibitor, partial curve]"
8,CC12CC3CC(C)(C1)CC(C(=O)Nc1nn[nH]n1)(C3)C2,inactive
9,Fc1ccc(C2=CC(c3ccc(Br)o3)n3ncnc3N2)cc1 (configuration not stated),"inconclusive: 39.8 µM [activator, single point]"
10,Clc1ncnc2scc(-c3ccc(Br)cc3)c12,"inconclusive: 39.8 µM [inhibitor, partial curve]"
11,O=C(NC(=S)Nc1ccc(S(=O)(=O)N2CCCCCC2)cc1)c1cccs1,inactive
12,COc1ccc(C(=O)NNC(=S)NC(=O)c2cc(-c3ccccc3)nc3ccccc23)cc1,"inconclusive: 10 µM [inhibitor, partial curve]"
13,COc1ccc(CNC(=O)c2cc(-c3ccncc3)nc3c(C)cc(C)cc23)cc1OC,"inconclusive: 28.2 µM [inhibitor, partial curve]"
14,COc1ccc(N2CCN(Cc3nc(N)nc(N4CCCc5ccccc54)n3)CC2)cc1,"inconclusive: 12.6 µM [inhibitor, partial curve]"
15,Cc1cc(/C=N/NC(=O)CC2(C)OCCO2)c(C)n1-c1ccc(Cl)c(Cl)c1,"inconclusive: 17.8 µM [inhibitor, single point]"
16,Nc1c(C(=O)Nc2ccccc2)sc2nc(-c3ccco3)ccc12,"inconclusive: 5.01 µM [inhibitor, full curve]"
17,CC(C)C[C@@H](CC(=O)N[C@@H](CCCN)CC(=O)N[C@@H]1CCCC[C@H]1C(=O)N[C@H](CC(=O)N[C@@H](CCC(=O)O)CC(=O)O)CC(C)C)NC(=O)[C@@H]1CCCC[C@H]1N,inactive
